Data: patent publication US20230083417A1, “THERAPEUTIC COMBINATION FOR THE TREATMENT OF BRAIN ISCHEMIA AND SAID THERAPEUTIC COMBINATION FOR USE IN THE TREATMENT OF BRAIN ISCHEMIA” (Universiteit Maastricht, priority 2020, published 2023)

Tested on: rat hippocampal brain slices
Assay: Rat hippocampal brain slices, OGD and re-oxygenation, cell viability by MTT
Format: cell-based
Conditions: 15 min OGD, 2 h re-oxygenation, GKT136901 0.1 μM, L-NAME 0.3 μM, BAY60-2770 0.01 μM, separately or combined at identical concentrations, vs untreated OGD
Source text: Rat Hippocampal Brain Slice Experiments. —2-3 months old adult male Sprague-Dawley rats were used. For hippocampal slices preparation and induction of oxygen deprivation and glucose deprivation (OGD), animals were decapitated and the brains were removed and transferred into ice-cold Krebs bicarbonate dissection buffer containing glucose and sucrose. Thereafter, hippocampi were dissected and sectioned in transverse slices of 250 μm. To stabilize tissue after slicing, slices were transferred to sucrose-free dissection buffer during 45 minutes at 34° C. Then, control group slices were incubated 15 minutes in a Krebs solution. Slices subjected to OGD were incubated in a Krebs buffer pre-bubbled with 95% N2/5% CO2, where 2-deoxyglucose replaced glucose. OGD period was followed by 2 h of re-oxygenation at 37° C. where slices were returned back to an oxygenated Krebs solution containing glucose^8. […] Cellular viability was quantified by their ability to reduce MTT. […] The formazan produced was solubilized by adding 200 μl dimethyl sulfoxide, giving a colored compound whose optical density was measured in an ELISA microplate reader at 540 nm^9. […]

SMILES: O=C(O)CCCCN(CCc1cc(F)ccc1OCc1ccc(-c2ccc(C(F)(F)F)cc2)cc1)Cc1ccc(C(=O)O)cc1 [BAY60-2770]
- cell viability (MTT reduction) (listed as BAY): did restore cell viability to a limited degree if at all

SMILES: COC(=O)[C@@H](N)CCCNC(=N)N[N+](=O)[O-] [L-NAME, N omega-Nitro-L-arginine methyl ester]
- cell viability (MTT reduction): did restore cell viability to a limited degree if at all
